The other results are listed elsewhere or left out.

The assay has as its system PF3D7_0420300 AP2 domain 1 (GST-tagged). In words: gcPBM binding intensity (ln(normalized median fluorescence intensity)); higher = stronger DNA binding. In a few lines: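 For binding intensity, the highest Masliner-normalised natural-log median intensity across replicate spots of either probe orientation was taken. Protein bound to the array was stained with Alexa488 anti-GST antibody and scanned at 488 nm. The protein, GST-tagged P. falciparum DNA-binding domains from E. coli at about 25 μg on average, had been applied for 1 h to an Agilent 4 × 180k array of primer-extended double-stranded 36-bp intergenic genomic probes and negative controls.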
On to “ACATATAAACTGTATACACACAAATATTGCATATAT [CACACA_site6804]”, for which the “gcPBM binding intensity (ln)” value is 9.62.

As to “TACATTCTAAATATTACACACTTTATAAAATAATAA [CACACA_site4069]”, the “gcPBM binding intensity (ln)” value was 9.1.

On to “ATATATATAAATATATGTACTAATATATACATATAT [XGTACX_site2289]”, for which the “gcPBM binding intensity (ln)” value amounted to 9.07.

In the case of “AGAAAAGAGAAATGGGCACACACACCCATATTATAT [CACACA_site8433]”, the “gcPBM binding intensity (ln)” value worked out at 9.66.

As for “TATATATAAAAAACATGTACACAAATTTACATACAT [XGTACX_site4777]”, the “gcPBM binding intensity (ln)” value was found to be 9.53.

In the case of “TCACTAAACCATTAGAGTACTTGACATATAATGAGC [XGTACX_site3272]”, the “gcPBM binding intensity (ln)” value was 9.05.

Turning to “AAGAGTTAAAAAAATACACACATATATATTTTTTTA [CACACA_site1980]”, the “gcPBM binding intensity (ln)” value was determined as 9.38.

In the case of “GATTATATATGAAAATGTACAAATATATATATATAT [XGTACX_site5963]”, the “gcPBM binding intensity (ln)” value is 9.2.

With “AAAAAAAAAAAAAAAAAAAAAAAAAAATACATATGT [XGTACX_negctrl_site95]”, the “gcPBM binding intensity (ln)” value was 9.38.

For the sequence “TTTTTGTATGCTTCCCGACTACATTATGCCATAAAT [CACACA_negctrl_site136]”, the “gcPBM binding intensity (ln)” value was found to be 9.43.

On to “AAACCAAGGCACAATAATTAAATAAATAAAATCATG [GTGCAC_negctrl_site574]”, for which the “gcPBM binding intensity (ln)” value was found to be 9.19.

Regarding “ATTTATATATATATAGGTACACATATTTATATATAA [XGTACX_site8487]”, the “gcPBM binding intensity (ln)” value amounted to 9.17.

For “ATATAATTTTTCAAGTGTACTTTTTTTTTTTAACAT [XGTACX_site3050]”, the “gcPBM binding intensity (ln)” value is 9.27.

“TCATTCATATGTTACACACACACACCCACATAAAAA [CACACA_site3245]”: the “gcPBM binding intensity (ln)” value was 10.1.

Consider “TTTATATGATATATTACACACAAAAAAAAAAAAAAA [CACACA_site3549]”, for which the “gcPBM binding intensity (ln)” value stood at 9.26.

Regarding “CTCTTCTATATATAAGCATGCATTCATAATAATTTA [TGCATGCA_site679]”, the “gcPBM binding intensity (ln)” value came to 9.21.

On to “TAGATACTTGTCATGGGTACATATCGTACCTTTTGG [XGTACX_site6781]”, for which the “gcPBM binding intensity (ln)” value is 9.03.

On to “CTTAAAAAAACCTTAACACACATAAACTCTAATTTA [CACACA_site7430]”, for which the “gcPBM binding intensity (ln)” value turned out to be 9.34.

In the case of “GTTTACATTAAAAATTGTACTCTGTATGAATAATAT [XGTACX_site80]”, the “gcPBM binding intensity (ln)” value stood at 9.1.

For “ATTTCATTTTATAAGTGTACAATAAAAAAAAAAAAA [XGTACX_site8677]”, the “gcPBM binding intensity (ln)” value stood at 8.94.

For “AAATTTGATATAAAAAGTACAAAATGTTCCTCAGCT [XGTACX_site809]”, the “gcPBM binding intensity (ln)” value is 9.21.

In the case of “ATATAAACAGAAAATAGTACTTTATATTGAAAAAAA [XGTACX_site7183]”, the “gcPBM binding intensity (ln)” value amounted to 9.25.

Consider “GATGATACAAAGTAATGTACATAAATACACATATTG [XGTACX_site3177]”, for which the “gcPBM binding intensity (ln)” value turned out to be 9.24.

With “CATTATGTCGTAAATACACACATACCTATACATACA [CACACA_site6763]”, the “gcPBM binding intensity (ln)” value stood at 9.57.

With “TATACACATATATAAACACACAAAAAAAAAAAAAAA [CACACA_site7041]”, the “gcPBM binding intensity (ln)” value amounted to 9.38.

For the sequence “CCATAAGATATATGTAGTACATATTATATATATATA [XGTACX_site2104]”, the “gcPBM binding intensity (ln)” value came out at 9.13.

Consider “AATATATAGCTAAAAACACACAAATATATACGCATA [CACACA_site3608]”, for which the “gcPBM binding intensity (ln)” value was determined as 9.69.

Regarding “AAAATATATACACAAACATGCATATAATAAATAAAT [TGCATGCA_site711]”, the “gcPBM binding intensity (ln)” value is 9.48.

In the case of “ATATTTCTGTGTGGATGTACATTATTAGCAGGCTTT [XGTACX_site6496]”, the “gcPBM binding intensity (ln)” value is 9.28.

Take “TTCTTTTTATTTATATTTTCCCCTCTCTATAGCTAT [XGTACX_negctrl_site102]”: the “gcPBM binding intensity (ln)” value is 9.38.

Take “CAAAATAATAATAAAAGTACTAACATATTTATGAAA [XGTACX_site6078]”: the “gcPBM binding intensity (ln)” value was determined as 9.29.

Consider “ATAATTCAAAAAAACACACAAATTACAAAATAAACT [CACACA_site6264]”, for which the “gcPBM binding intensity (ln)” value is 9.91.

As to “GATAATTTTTTTCTCACACACAAATATTTTAATCAT [CACACA_site3666]”, the “gcPBM binding intensity (ln)” value was 9.69.

Consider “AAATATATTATATCATATATTAAAGCATATATTAAA [CACACA_negctrl_site1624]”, for which the “gcPBM binding intensity (ln)” value turned out to be 9.03.

On to “AAAAAAAAAAAACACACACACACACCGACACATACA [CACACA_site5576]”, for which the “gcPBM binding intensity (ln)” value was 10.2.

“GAATATTCACATACTTGTACATATATATATATATAT [XGTACX_site7302]”: the “gcPBM binding intensity (ln)” value was found to be 9.36.

Regarding AGGTAAAAATGGTAAGTGCATTAATGATAAAAAATG, the “gcPBM binding intensity (ln)” value worked out at 9.64.

In the case of “TAATAATAGTACTGACATCGAAATATTATTAAAAAT [CACACA_negctrl_site255]”, the “gcPBM binding intensity (ln)” value was 9.11.

Take “GTTTACATAGATAACTGTACGCAATGATATTAGACA [XGTACX_site1320]”: the “gcPBM binding intensity (ln)” value is 9.18.

Regarding “TATAAGAATAAAAAGGGTACATAAAATAATAATATA [XGTACX_site2355]”, the “gcPBM binding intensity (ln)” value was 9.55.

As for “ATATTTTGGGGACTTTTTAAAAAAGAAGTATTAAAA [CACACA_negctrl_site1228]”, the “gcPBM binding intensity (ln)” value is 8.8.

With “TGGCAAAATAGGCACACACACATATACCTATAGATT [CACACA_site7168]”, the “gcPBM binding intensity (ln)” value amounted to 9.9.

“GTAAATATATAAACATGTACATATATAAATATATAA [XGTACX_site7262]”: the “gcPBM binding intensity (ln)” value worked out at 9.27.

With “AATTTTTCAAATTAATGTACTTGTTATAAATTGTAA [XGTACX_site5428]”, the “gcPBM binding intensity (ln)” value is 9.01.

As to “TTGTTTCTTTTTTTTTGTACATATATATTGTATATT [XGTACX_site7602]”, the “gcPBM binding intensity (ln)” value worked out at 9.56.

“GGACAACAAACAAACACACACAAAAAAAAAATAAAA [CACACA_site3791]”: the “gcPBM binding intensity (ln)” value came out at 9.84.

On to “TACGTATTTTAATATTTACACACTTATTTTTTATAT [CACACA_site7924]”, for which the “gcPBM binding intensity (ln)” value amounted to 9.71.

For “TATATCTGTTTATATTGTACACATATATATATATAT [XGTACX_site714]”, the “gcPBM binding intensity (ln)” value amounted to 9.36.

In the case of “GGCAATACATAATAATGTACATAATTATATAATATT [XGTACX_site3739]”, the “gcPBM binding intensity (ln)” value came out at 9.24.

As to “TACAAACACCCATATACACACAAAAAAAAAATAAAA [CACACA_site5421]”, the “gcPBM binding intensity (ln)” value worked out at 9.55.

As for “AGAAAAACTTATATGATACACACGATAAACAAAATA [CACACA_site1038]”, the “gcPBM binding intensity (ln)” value turned out to be 9.59.

For “TATATAATATATATATGTACATATATATATGTTTTT [XGTACX_site3347]”, the “gcPBM binding intensity (ln)” value turned out to be 9.18.

On to “TATACATAAAACAGTTCACACATTGTATGAATATAT [CACACA_site4751]”, for which the “gcPBM binding intensity (ln)” value is 9.47.

For the sequence “ATTAATTTTAATAAAGGTACACGTAGTTTTTTATTA [XGTACX_site7868]”, the “gcPBM binding intensity (ln)” value is 9.02.

With “TTAAAATTAAAAATGCGTACACATATACATAAAAAA [XGTACX_site1915]”, the “gcPBM binding intensity (ln)” value was 9.27.

In the case of “TATATATATATATATTGTACTGAACGTTTTTTTTTG [XGTACX_site8060]”, the “gcPBM binding intensity (ln)” value turned out to be 9.31.

The record behind these values is the supplement of paper PMC11417369.
